Positions count from the first letter of the chain named. The list shows a part of the results.
B1: GCUUUCU (DNA:RNA)
RNA: GGGAGACCGGAAUUCAGAUUGUCCGCUUUCUUUAAAUCCCGUCGUAGCCACCA
DNA 1: CAATCTGAATTCCGGTCTCCC
DNA 2: TGGTGGCTACGACGGGATT
B2: CUCAGGA (DNA:RNA)
RNA: GGGAGACCGGAAUUCAGAUUGUCCCUCAGGAUUAAAUCCCGUCGUAGCCACCA
DNA 1: CAATCTGAATTCCGGTCTCCC
DNA 2: TGGTGGCTACGACGGGATT
B3: CAUCUCA (DNA:RNA)
RNA: B1 RNA with G25C, C26A, U28C, U31A
DNA 1: CAATCTGAATTCCGGTCTCCC
DNA 2: TGGTGGCTACGACGGGATT
B4: CCUACCC (DNA:RNA)
RNA: B1 RNA with G25C, U28A, U29C, U31C
DNA 1: CAATCTGAATTCCGGTCTCCC
DNA 2: TGGTGGCTACGACGGGATT
B5: GCAGCAU (DNA:RNA)
RNA: B1 RNA with U27A, U28G, U29C, C30A
DNA 1: CAATCTGAATTCCGGTCTCCC
DNA 2: TGGTGGCTACGACGGGATT
B6: UCAUAGU (DNA:RNA)
RNA: B1 RNA with G25U, U27A, U29A, C30G
DNA 1: CAATCTGAATTCCGGTCTCCC
DNA 2: TGGTGGCTACGACGGGATT
B7: UACCUCA (DNA:RNA)
RNA: B2 RNA with C25U, U26A, A28C, G29U, G30C
DNA 1: CAATCTGAATTCCGGTCTCCC
DNA 2: TGGTGGCTACGACGGGATT
B8: AAAGUAU (DNA:RNA)
RNA: B1 RNA with G25A, C26A, U27A, U28G, C30A
DNA 1: CAATCTGAATTCCGGTCTCCC
DNA 2: TGGTGGCTACGACGGGATT
B9: UAGACUC (DNA:RNA)
RNA: B2 RNA with C25U, U26A, C27G, G29C, G30U, A31C
DNA 1: CAATCTGAATTCCGGTCTCCC
DNA 2: TGGTGGCTACGACGGGATT
B10: UUCCUGC (DNA:RNA)
RNA: B2 RNA with C25U, A28C, G29U, A31C
DNA 1: CAATCTGAATTCCGGTCTCCC
DNA 2: TGGTGGCTACGACGGGATT
B11: CACCUGC (DNA:RNA)
RNA: B2 RNA with U26A, A28C, G29U, A31C
DNA 1: CAATCTGAATTCCGGTCTCCC
DNA 2: TGGTGGCTACGACGGGATT
B12: CGUCACA (DNA:RNA)
RNA: B2 RNA with U26G, C27U, A28C, G29A, G30C
DNA 1: CAATCTGAATTCCGGTCTCCC
DNA 2: TGGTGGCTACGACGGGATT
B13: CCGUUAC (DNA:RNA)
RNA: B1 RNA with G25C, U27G, C30A, U31C
DNA 1: CAATCTGAATTCCGGTCTCCC
DNA 2: TGGTGGCTACGACGGGATT
B14: AGUCCUA (DNA:RNA)
RNA: B2 RNA with C25A, U26G, C27U, A28C, G29C, G30U
DNA 1: CAATCTGAATTCCGGTCTCCC
DNA 2: TGGTGGCTACGACGGGATT
B15: GGACCGA (DNA:RNA)
RNA: B2 RNA with C25G, U26G, C27A, A28C, G29C
DNA 1: CAATCTGAATTCCGGTCTCCC
DNA 2: TGGTGGCTACGACGGGATT
B16: ACUGCCU (DNA:RNA)
RNA: B1 RNA with G25A, U28G, U29C
DNA 1: CAATCTGAATTCCGGTCTCCC
DNA 2: TGGTGGCTACGACGGGATT
B17: AAAAUGG (DNA:RNA)
RNA: B2 RNA with C25A, U26A, C27A, G29U, A31G
DNA 1: CAATCTGAATTCCGGTCTCCC
DNA 2: TGGTGGCTACGACGGGATT
B18: UCGUUUC (DNA:RNA)
RNA: B1 RNA with G25U, U27G, C30U, U31C
DNA 1: CAATCTGAATTCCGGTCTCCC
DNA 2: TGGTGGCTACGACGGGATT
B19: UGUCGCU (DNA:RNA)
RNA: B1 RNA with G25U, C26G, U28C, U29G
DNA 1: CAATCTGAATTCCGGTCTCCC
DNA 2: TGGTGGCTACGACGGGATT
B20: UCUCAUA (DNA:RNA)
RNA: B1 RNA with G25U, U28C, U29A, C30U, U31A
DNA 1: CAATCTGAATTCCGGTCTCCC
DNA 2: TGGTGGCTACGACGGGATT
B21: AUCGAAC (DNA:RNA)
RNA: B2 RNA with C25A, A28G, G29A, G30A, A31C
DNA 1: CAATCTGAATTCCGGTCTCCC
DNA 2: TGGTGGCTACGACGGGATT
B22: CUUACGU (DNA:RNA)
RNA: B2 RNA with C27U, G29C, A31U
DNA 1: CAATCTGAATTCCGGTCTCCC
DNA 2: TGGTGGCTACGACGGGATT
B23: UUAACUG (DNA:RNA)
RNA: B2 RNA with C25U, C27A, G29C, G30U, A31G
DNA 1: CAATCTGAATTCCGGTCTCCC
DNA 2: TGGTGGCTACGACGGGATT
B24: UUGUCUA (DNA:RNA)
RNA: B2 RNA with C25U, C27G, A28U, G29C, G30U
DNA 1: CAATCTGAATTCCGGTCTCCC
DNA 2: TGGTGGCTACGACGGGATT
B25: UCGCCUG (DNA:RNA)
RNA: B1 RNA with G25U, U27G, U28C, U29C, C30U, U31G
DNA 1: CAATCTGAATTCCGGTCTCCC
DNA 2: TGGTGGCTACGACGGGATT
B26: AUGGCCA (DNA:RNA)
RNA: B2 RNA with C25A, C27G, A28G, G29C, G30C
DNA 1: CAATCTGAATTCCGGTCTCCC
DNA 2: TGGTGGCTACGACGGGATT
B27: AACCAGU (DNA:RNA)
RNA: B2 RNA with C25A, U26A, A28C, G29A, A31U
DNA 1: CAATCTGAATTCCGGTCTCCC
DNA 2: TGGTGGCTACGACGGGATT
B28: UGGCCUU (DNA:RNA)
RNA: B1 RNA with G25U, C26G, U27G, U28C, U29C, C30U
DNA 1: CAATCTGAATTCCGGTCTCCC
DNA 2: TGGTGGCTACGACGGGATT
B29: UCGUUGC (DNA:RNA)
RNA: B1 RNA with G25U, U27G, C30G, U31C
DNA 1: CAATCTGAATTCCGGTCTCCC
DNA 2: TGGTGGCTACGACGGGATT
B30: AUGGGUG (DNA:RNA)
RNA: B2 RNA with C25A, C27G, A28G, G30U, A31G
DNA 1: CAATCTGAATTCCGGTCTCCC
DNA 2: TGGTGGCTACGACGGGATT
B31: ACCAAGG (DNA:RNA)
RNA: B2 RNA with C25A, U26C, G29A, A31G
DNA 1: CAATCTGAATTCCGGTCTCCC
DNA 2: TGGTGGCTACGACGGGATT

Target: T1, RBFOX1 RRM (Homo sapiens, UniProt Q9NWB1 109-208)
T1 sequence: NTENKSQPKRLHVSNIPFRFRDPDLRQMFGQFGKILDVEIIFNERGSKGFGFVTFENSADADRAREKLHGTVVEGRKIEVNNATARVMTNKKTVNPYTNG
Experiment: EMSA; HiTS-Eq, 1 nM pool, 10 min; buffer printed only for the single-RNA assays: 10 mM Tris pH 7.5, 150 mM NaCl, 3.4 mM EDTA, 0.001% NP-40, 30 C
Conditions: tags: His6 N-terminal (pET28a); label: 5' 32P
Method in brief: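 Purified RbFox RRM (wild type or mutant) was equilibrated for 10 min in 50 µL with 1 nM of a 5′-radiolabelled pool of RNA with 7 randomized nucleotides, its flanks annealed to DNA oligonucleotides, across increasing protein concentrations. Free RNA was separated by 8% native PAGE, excised, reverse-transcribed, PCR-barcoded and sequenced on an Illumina HiSeq 2500. Relative association constants came from read-count changes of each variant against the control reaction, normalised to the cognate motif.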

First: B1
Second: B2
The binding signal of the first is higher: 0.0146 KA relative to UGCAUGU for the first, 0.0101 KA relative to UGCAUGU for the second.

Compared with B3, B4 is higher in binding signal: 0.00219 KA relative to UGCAUGU for the first, 0.00331 KA relative to UGCAUGU for the second.

First: B5
Second: B6
The binding signal of the first is higher: 0.0149 KA relative to UGCAUGU for the first, 0.00577 KA relative to UGCAUGU for the second.

First: B7
Second: B8
The binding signal of the first is lower: 0.000227 KA relative to UGCAUGU for the first, 0.00169 KA relative to UGCAUGU for the second.

First: B9
Second: B10
The binding signal of the first is lower: 0.00599 KA relative to UGCAUGU for the first, 0.0123 KA relative to UGCAUGU for the second.

Compared with B11, B12 is lower in binding signal: 0.00791 KA relative to UGCAUGU for the first, 0.00392 KA relative to UGCAUGU for the second.

First: B13
Second: B14
The binding signal of the first is higher: 0.00473 KA relative to UGCAUGU for the first, 0.00193 KA relative to UGCAUGU for the second.

First: B15
Second: B16
The binding signal of the first is higher: 0.0139 KA relative to UGCAUGU for the first, 0.00954 KA relative to UGCAUGU for the second.

Compared with B17, B18 is higher in binding signal: 0.0053 KA relative to UGCAUGU for the first, 0.0147 KA relative to UGCAUGU for the second.

Compared with B19, B20 is lower in binding signal: 0.0213 KA relative to UGCAUGU for the first, 0.00153 KA relative to UGCAUGU for the second.

Compared with B21, B22 is higher in binding signal: 0.00375 KA relative to UGCAUGU for the first, 0.00661 KA relative to UGCAUGU for the second.

Compared with B23, B24 is lower in binding signal: 0.0153 KA relative to UGCAUGU for the first, 0.0137 KA relative to UGCAUGU for the second.

First: B25
Second: B26
The binding signal of the first is higher: 0.0246 KA relative to UGCAUGU for the first, 0.0113 KA relative to UGCAUGU for the second.

First: B27
Second: B28
The binding signal of the first is lower: 0.000945 KA relative to UGCAUGU for the first, 0.0212 KA relative to UGCAUGU for the second.

First: B29
Second: B30
The binding signal of the first is higher: 0.0227 KA relative to UGCAUGU for the first, 0.02 KA relative to UGCAUGU for the second.

With B31 the binding signal was 0.00614 KA relative to UGCAUGU.

Source: paper PMC9911399, “Two distinct binding modes provide the RNA-binding protein RbFox with extraordinary sequence specificity”
